From PMC4336329 (PLoS ONE, 2015)
Hit rate of the full screen: of about 310,000 compounds, about 14,000 (4.5%) showed an effect of 50% or more. Effects have a minus sign here. Some of the results follow.

biological target: human ether-à-go-go-related gene (hERG) potassium channel (human, UniProt Q12809); experiment: primary screen, population patch clamp on CHO cells stably expressing hERG
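Note: peak tail current of the secondary pulse compared with the same well before compound.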

Sequence of human ether-à-go-go-related gene (hERG) potassium channel (Q12809 whole entry, looked up): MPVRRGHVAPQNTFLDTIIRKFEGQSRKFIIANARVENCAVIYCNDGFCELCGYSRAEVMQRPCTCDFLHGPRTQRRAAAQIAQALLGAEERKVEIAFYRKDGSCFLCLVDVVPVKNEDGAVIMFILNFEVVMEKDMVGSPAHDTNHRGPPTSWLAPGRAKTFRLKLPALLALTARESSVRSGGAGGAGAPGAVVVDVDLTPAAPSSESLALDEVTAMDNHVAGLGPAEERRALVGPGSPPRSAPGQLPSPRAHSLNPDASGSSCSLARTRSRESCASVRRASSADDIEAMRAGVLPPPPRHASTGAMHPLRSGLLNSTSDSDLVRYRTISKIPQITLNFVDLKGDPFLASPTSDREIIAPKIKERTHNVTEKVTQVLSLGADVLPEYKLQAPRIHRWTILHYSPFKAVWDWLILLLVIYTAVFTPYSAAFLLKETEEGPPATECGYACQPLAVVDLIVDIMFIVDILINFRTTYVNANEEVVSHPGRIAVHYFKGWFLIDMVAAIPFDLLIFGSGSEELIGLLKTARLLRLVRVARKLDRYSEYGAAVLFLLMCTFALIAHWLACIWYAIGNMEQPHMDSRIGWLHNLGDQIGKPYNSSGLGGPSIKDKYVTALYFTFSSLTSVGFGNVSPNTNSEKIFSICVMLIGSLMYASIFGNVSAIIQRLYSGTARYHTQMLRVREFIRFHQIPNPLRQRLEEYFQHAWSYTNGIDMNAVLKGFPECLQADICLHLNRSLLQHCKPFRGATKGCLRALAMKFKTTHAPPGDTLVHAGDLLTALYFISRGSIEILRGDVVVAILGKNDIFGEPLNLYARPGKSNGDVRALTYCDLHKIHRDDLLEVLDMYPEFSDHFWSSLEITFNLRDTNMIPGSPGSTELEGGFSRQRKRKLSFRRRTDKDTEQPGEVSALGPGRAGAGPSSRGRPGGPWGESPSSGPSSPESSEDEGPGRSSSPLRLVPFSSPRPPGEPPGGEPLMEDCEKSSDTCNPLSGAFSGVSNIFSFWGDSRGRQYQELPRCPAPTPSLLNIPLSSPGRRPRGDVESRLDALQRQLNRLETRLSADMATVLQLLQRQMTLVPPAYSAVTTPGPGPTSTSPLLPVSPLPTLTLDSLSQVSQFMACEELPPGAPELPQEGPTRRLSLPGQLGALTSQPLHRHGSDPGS

| SMILES | hERG current change (%, negative = inhibition) at 10uM |
| --- | --- |
| O=C(NCCCn1ccnc1)c1ccccc1Br | -11.9% |
| Oc1ccccc1-[n+]1c(-c2ccccc2)cc(-c2ccccc2)c(O)c1-c1ccccc1.[O-][Cl+3]([O-])([O-])[O-] | 15.1% |
| Cc1cccc(NC(=O)CCC(=O)NCCO)c1 | 5.96% |
| CC(=O)N1N=C(c2ccc(C)cc2)OC1c1ccc(C(C)C)cc1 (stereo not drawn) | 13.6% |
| O=C(Nc1ccc(O)cc1)c1ccc(NC(=O)c2ccco2)cc1 | 16.5% |
| O=C(CCc1nnc2ccc(NCc3ccco3)nn12)N1CCN(c2ccccc2F)CC1 | -20.5% |
| CCC(CC)C(=O)Nc1nnc(SCC(=O)NC2CCCCC2)s1 | 7.91% |
| O=C1CCCCCN1Cc1nnc(SCc2nc3ccccc3s2)n1-c1ccccn1 | -3.29% |
| O=C(CCC(=O)N1CCOc2ccccc21)N1CCCCC1 | -3.26% |
| Cc1nn(C(C)C(=O)NCCCc2ccccc2)c(=O)c2cc3occc3n12 (stereo not drawn) | -24.2% |
| COc1cccc(NS(=O)(=O)NC(=O)c2c[nH]c3ccccc23)c1 | 10.4% |
| O=C(OCCN1C(=O)c2ccccc2C1=O)c1cnccn1 | 9.28% |
| CCC(C(=O)N1CCOCC1)n1nc(C)c2c(C)n(-c3ccccc3)nc2c1=O (stereo not drawn) | 7.01% |
| O=C(NCCS(=O)(=O)N1CCN(c2ccccc2)CC1)C1CC1 | 3.93% |
| O=C(c1ccc(Cl)c(S(=O)(=O)N2CCCCCC2)c1)N1CCN(c2ccccc2O)CC1 | -31.4% |
| COc1ccccc1/C=C/C=N/n1c(-c2ccc(Cl)cc2Cl)n[nH]c1=S | 29.2% |
| O=C(Cn1nnc(-c2ccccc2)n1)N1CCN(S(=O)(=O)c2ccc(Cl)cc2)CC1 | 3.96% |
| O=C(NCCCN1CCCC1=O)c1cc(-c2ccc3c(c2)OCO3)nc2ccccc12 | -4.06% |
| COC(=O)c1ccccc1NC(=O)c1nc(S(=O)(=O)Cc2ccccc2)ncc1Cl | 21.2% |
| CCCCN(CC)CCCNC(=O)CN1C(=O)CSc2ccc(S(=O)(=O)N3CCOCC3)cc21 | 20.7% |
| O=C(Nc1ccc(N=Nc2ccccc2)cc1)c1ccccc1Cl | 10% |
| Cc1ccc(-c2noc(C3CCCN(C(=O)c4ccc(C(C)(C)C)cc4)C3)n2)o1 (stereo not drawn) | -19.8% |
| CCNNC(=O)C(O)(c1cccc(C)c1)c1cccc(C)c1 | -0.16% |

| SMILES | hERG current change (%, negative = inhibition) at 10uM |
| --- | --- |
| O=C(COC(=O)c1ccc(Cl)nc1)NCCC1=CCCCC1 | 6.06% |
| Fc1cc(F)cc(NC(=S)N2CCN(c3ncccn3)CC2)c1 | -10.4% |
| CCOc1ccc(S(=O)(=O)N(C)c2ccc(OCC(=O)NCC3CCCO3)cc2)cc1 (stereo not drawn) | -16.9% |
| COc1ccc(OC)c(NC(=O)c2ccno2)c1 | 26.7% |
| O=C1C2C3CCC(CC3)C2C(=O)N1c1ccccc1 (stereo not drawn) | 23.9% |
| O=C1N=C(N2CCN(c3ccccc3)CC2)S/C1=C/c1ccco1 | -53.8% |
| COc1ccc(S(=O)(=O)N2CCCC2CNC(=O)C(=O)Nc2ccc(C)cc2)cc1 (stereo not drawn) | -27.4% |
| Cc1cc(C(F)(F)F)nc(CCNC(=O)C2CCC(=O)N(Cc3cccc(F)c3)C2)n1 (stereo not drawn) | -5.78% |
| O=C(CN1C(=O)COc2ccc(Cl)cc21)Nc1ccccn1 | 10% |
| COC(=O)CSc1nnc(-c2ccccn2)n1Cc1ccco1 | -13.8% |
| O=C(Nc1nccs1)c1cccc(S(=O)(=O)N2CCOCC2)c1 | -9.33% |
| O=C1N=C(N2CCCCC2)S/C1=C\c1ccncc1 | -5.21% |
| Br.Clc1ccc2nc(CN3CCCCCC3)cn2c1 | -46.7% |
| Cc1ccc2nsnc2c1NC(=O)c1cccc([N+](=O)[O-])c1 | 0.518% |
| Cc1ccc(S(=O)(=O)N(Cc2ccc(Cl)cc2)c2ccccc2C(=O)NCc2ccco2)cc1 | -10.8% |
| Cc1nc(C)c(C(=O)N/N=C/c2ccco2)s1 | 6.04% |
| COC(=O)C(F)(Sc1c(C)n(C)n(-c2ccccc2)c1=O)C(F)(F)F (stereo not drawn) | -9.14% |
| Cc1ccncc1C(N)=O | 13.3% |
| Cc1ccc(C(=O)c2cn[nH]c2-c2cc(Cl)ccc2O)cc1 | 3.03% |
| CCOC(=O)c1c(C)[nH]c(C(=O)OCC(=O)NC(C)(C)C)c1C | 5.81% |
| CC(=O)c1cccc(Nc2nc(N3CCOCC3)nc(N3CCOCC3)n2)c1.Cl | 13.7% |
| CCc1nnc(NC(=O)c2c(OC)cccc2OC)s1 | 6.71% |
